Assay results published in paper PMC4336329 (PLoS ONE, 2015).
Hit rate of the full screen: of about 310,000 compounds, about 2,200 (0.71%) showed an effect of 50% or more. Effects have a minus sign here. Some of the results follow.

What follows are molecules tested against human ether-à-go-go-related gene (hERG) potassium channel (human, UniProt Q12809) (assay: primary screen, population patch clamp on CHO cells stably expressing hERG).
Chain of human ether-à-go-go-related gene (hERG) potassium channel (Q12809 whole entry, looked up): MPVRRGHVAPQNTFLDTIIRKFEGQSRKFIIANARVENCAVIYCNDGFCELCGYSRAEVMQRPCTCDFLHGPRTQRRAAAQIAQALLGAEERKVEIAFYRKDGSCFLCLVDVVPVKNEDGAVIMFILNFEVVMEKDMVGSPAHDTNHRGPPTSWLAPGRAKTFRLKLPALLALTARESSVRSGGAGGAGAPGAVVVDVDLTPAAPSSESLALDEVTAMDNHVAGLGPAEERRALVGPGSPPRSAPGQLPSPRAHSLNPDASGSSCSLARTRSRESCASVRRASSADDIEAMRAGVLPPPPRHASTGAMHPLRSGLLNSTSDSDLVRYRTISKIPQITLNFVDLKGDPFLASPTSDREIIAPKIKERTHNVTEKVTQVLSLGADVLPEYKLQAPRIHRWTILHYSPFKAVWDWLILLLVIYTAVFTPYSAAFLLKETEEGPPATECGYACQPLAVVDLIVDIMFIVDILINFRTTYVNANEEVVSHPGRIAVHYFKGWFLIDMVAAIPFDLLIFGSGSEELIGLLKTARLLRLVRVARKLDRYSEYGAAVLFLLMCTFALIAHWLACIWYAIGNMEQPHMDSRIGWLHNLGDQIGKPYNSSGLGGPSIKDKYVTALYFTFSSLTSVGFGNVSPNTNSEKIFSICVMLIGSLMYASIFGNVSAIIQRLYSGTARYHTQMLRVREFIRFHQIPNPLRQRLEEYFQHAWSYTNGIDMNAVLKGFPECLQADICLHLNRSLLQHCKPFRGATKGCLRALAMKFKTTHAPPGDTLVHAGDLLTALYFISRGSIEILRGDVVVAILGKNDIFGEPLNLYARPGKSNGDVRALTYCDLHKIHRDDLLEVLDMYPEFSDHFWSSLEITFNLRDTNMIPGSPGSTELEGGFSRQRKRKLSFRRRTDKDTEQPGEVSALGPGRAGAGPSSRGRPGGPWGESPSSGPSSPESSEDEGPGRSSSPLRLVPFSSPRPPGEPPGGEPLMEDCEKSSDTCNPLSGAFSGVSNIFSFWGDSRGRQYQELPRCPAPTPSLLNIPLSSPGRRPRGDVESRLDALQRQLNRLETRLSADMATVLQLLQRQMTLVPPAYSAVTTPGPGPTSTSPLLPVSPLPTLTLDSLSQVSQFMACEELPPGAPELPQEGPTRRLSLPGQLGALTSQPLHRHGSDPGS

First: CC[C@@H](C)[C@H](NC(=O)CCc1c(C)c2cc3c4c(oc3c(C)c2oc1=O)CCCC4)C(=O)O
Second: COc1ccc(CCc2nnc(CCC(=O)NCc3cc(C(C)C)no3)o2)cc1
The “hERG current change (%, negative = inhibition) at 1uM” value of the first is lower: 11.3% for the first, 13.9% for the second.

First: COc1ccc([C@H]2CC(=O)C=C(c3ccc(OC)c(OC)c3)C2)cc1
Second: COC(=O)C1=C(C)N(c2ccc(OC)c(OC)c2)C(=O)/C1=C\c1ccco1
The “hERG current change (%, negative = inhibition) at 1uM” value of the first is lower: 11.9% for the first, 12.5% for the second.

First: O=C(CN1CCCCCC1)Nc1cc(C(F)(F)F)ccc1Cl
Second: O=C(c1cc(Cl)nc2ccccc12)N1CCCCC1
The “hERG current change (%, negative = inhibition) at 1uM” value of the first is lower: 5.62% for the first, 7.78% for the second.

Going from CCn1c(SCC(=O)Nc2ccc(NC(=O)c3ccco3)cc2)nnc1-c1cccs1 to CC(C)(C)c1ccc(C(=O)Nc2ccccc2NC(=O)c2ccco2)cc1, the “hERG current change (%, negative = inhibition) at 1uM” value falls from 11.7% to 6.52%.

Going from CCOC(=O)CN(C)Cc1cn[nH]c1-c1ccc2cc(OC)ccc2c1 to COc1ccc(-c2csc(NC(=O)c3ccoc3C)n2)cc1, the “hERG current change (%, negative = inhibition) at 1uM” value rises from 10.9% to 17%.

First: CCOC(=O)c1cnc2c(OC)cccc2c1Oc1ccccc1
Second: COc1ccccc1N1CCN(C(=O)c2cccc(Oc3ccccc3)c2)CC1.Cl
The “hERG current change (%, negative = inhibition) at 1uM” value of the first is higher: 11% for the first, 2.65% for the second.

Going from N/C(=N\OC(=O)C12CC3CC(CC(C3)C1)C2)c1ccccn1 to COc1ccc(N(C(=O)c2csnn2)C(C(=O)NC2CCCC2)c2cccs2)cc1 (stereo not drawn), the “hERG current change (%, negative = inhibition) at 1uM” value rises from 3.94% to 5.63%.

Going from COCCN(C(=O)c1csnn1)C(C(=O)NC1CCCC1)c1ccc(C)cc1 (stereo not drawn) to COc1ccc(C(CNC(=O)COc2cccc(C)c2)N2CCCC2)cc1 (stereo not drawn), the “hERG current change (%, negative = inhibition) at 1uM” value falls from 7.06% to 6.48%.

First: CCOCCCNC(=S)N1CCCN(c2nc3cc(C)c(C)cc3cc2C#N)CC1
Second: CCOc1ccc(-c2nc(C#N)c(N3CCN(CC)CC3)o2)cc1
The “hERG current change (%, negative = inhibition) at 1uM” value of the first is higher: -1.71% for the first, -17.7% for the second.

Compared with COc1ccc(N2CCN(CC(=O)c3ccc(O)cc3O)CC2)cc1, COc1ccc(OCC(=O)N2CCN(C(=O)c3ccccc3)CC2)cc1 is lower in “hERG current change (%, negative = inhibition) at 1uM” value: 22.8% for the first, -3.83% for the second.

First: Cc1cc([N+](=O)[O-])ccc1N1C(=O)c2ccc(C(=O)Nc3ccccc3C(=O)O)cc2C1=O
Second: CC(=O)Nc1ccc2nc(NC(=O)c3ccc([N+](=O)[O-])s3)sc2c1
The “hERG current change (%, negative = inhibition) at 1uM” value of the first is lower: 11% for the first, 19.5% for the second.

First: CCN1CSC(=S)N(Cc2ccccc2)C1
Second: CC1CCCN(C(=S)NCCc2ccccc2)C1 (stereo not drawn)
The “hERG current change (%, negative = inhibition) at 1uM” value of the first is lower: 9.5% for the first, 10.5% for the second.

First: CCN1C(=O)C(C(=O)NC(C)c2ccccc2)C2CC1(C)Oc1ccccc12 (stereo not drawn)
Second: CC(NC(=O)COC(=O)c1cc(Cl)nc(Cl)c1)c1ccccc1 (stereo not drawn)
The “hERG current change (%, negative = inhibition) at 1uM” value of the first is lower: 1.51% for the first, 4.7% for the second.

First: COc1ccc2[nH]c(-c3ccccc3)cc2c1
Second: c1ccc(OCCCc2nc(-c3ccccn3)no2)cc1
The “hERG current change (%, negative = inhibition) at 1uM” value of the first is higher: 12% for the first, 10.4% for the second.

First: COc1ccc(Cl)cc1NC(=O)NCC1CCN(Cc2cc(C)ccc2C)CC1
Second: Cc1ccc(NC(=S)NC2CCN(Cc3ccccc3)CC2)cc1
The “hERG current change (%, negative = inhibition) at 1uM” value of the first is higher: 0.244% for the first, -6.43% for the second.

Going from CCOc1ccc(NC(=S)NC(=O)/C=C/c2ccc(Br)cc2)c([N+](=O)[O-])c1 to COc1cccc(NC(=S)N(Cc2ccc(Cl)cc2)Cc2ccc(C(=O)O)cc2)c1, the “hERG current change (%, negative = inhibition) at 1uM” value rises from 10.5% to 15%.

Going from O=C(c1cc2nc(-c3ccc(F)cc3)cc(C(F)(F)F)n2n1)N1CCOCC1 to Nc1nc(CN2CCN(c3ccccn3)CC2)nc(Nc2ccc(F)cc2)n1, the “hERG current change (%, negative = inhibition) at 1uM” value falls from 10.2% to -49%.

Going from CCCCNC(=O)c1ccc(NC(=O)C2CCCO2)cc1 (stereo not drawn) to COc1ccc(NC(=O)C2CCCN2C(=O)NCc2ccccc2)cc1OC (stereo not drawn), the “hERG current change (%, negative = inhibition) at 1uM” value rises from 13.5% to 19.3%.

First: CCOC(=O)C1=C2c3cc(OC)c(OC)cc3CC(C)(C)N2C(=O)C1=O
Second: COc1ccc(NC(C)=O)c2nc(C)c(C)nc12
The “hERG current change (%, negative = inhibition) at 1uM” value of the first is higher: 11.8% for the first, 9.37% for the second.

Going from Cc1ccc(-c2csc3nc(-c4ccncc4)[nH]c(=O)c23)cc1 to Cc1ccc(-c2csc(=S)[nH]2)cc1, the “hERG current change (%, negative = inhibition) at 1uM” value rises from -2.12% to 12.3%.

First: Cc1ccc(NC(=O)NC2CC(=O)N(c3ccc4c(c3)OCCO4)C2)cc1C (stereo not drawn)
Second: Nc1nonc1-n1nnc(C(=O)N/N=C/c2ccccc2Cl)c1-c1ccc2c(c1)OCO2
The “hERG current change (%, negative = inhibition) at 1uM” value of the first is higher: 19.3% for the first, 1.92% for the second.

Compared with Cc1cc(N2CCN(c3ccccn3)CC2)n2cc(-c3ccccc3)nc2n1, CN1CCN(C(=O)/C(=C/c2ccc(N(C)C)cc2)NC(=O)c2ccccc2)CC1 is higher in “hERG current change (%, negative = inhibition) at 1uM” value: -65.4% for the first, 7.18% for the second.

Compared with Brc1ccc2nc(N3CCCC3)sc2c1, Cc1cccc(N2CCc3c2nc2ccc(Br)cc2c3N)c1.Cl is lower in “hERG current change (%, negative = inhibition) at 1uM” value: 8.86% for the first, 7.1% for the second.

First: O=c1[nH][nH]c(C(F)(F)F)c1C=NCc1ccc(Cl)cc1
Second: O=C(NC1CCCN(Cc2ccc(Cl)cc2)C1)c1c(F)cccc1F (stereo not drawn)
The “hERG current change (%, negative = inhibition) at 1uM” value of the first is lower: 9.01% for the first, 17.1% for the second.

First: O=C1CCCN1CC(=O)N1CCCC(Nc2cccc(F)c2)C1 (stereo not drawn)
Second: OCCC1CN(Cc2nc3ccc(F)cc3[nH]2)CCN1C1CCCC1 (stereo not drawn)
The “hERG current change (%, negative = inhibition) at 1uM” value of the first is lower: 2.66% for the first, 6.57% for the second.

Going from COCCNCCOc1ccc(C(C)(C)c2ccccc2)cc1.O=C(O)C(=O)O to CN(CCOc1ccccc1)C(=O)C1CCN(C(=O)c2ccc(F)cc2)CC1, the “hERG current change (%, negative = inhibition) at 1uM” value rises from -2.39% to 6.11%.

First: Cc1cccnc1NC(=O)CSc1nnc(COc2ccc(C(C)C)cc2)n1C
Second: Cc1cc(OCC(O)CN2CCN(CCO)CC2)ccc1C(C)C.Cl (stereo not drawn)
The “hERG current change (%, negative = inhibition) at 1uM” value of the first is lower: 6.31% for the first, 7.73% for the second.

Going from CCOC(=O)c1sc2nc(CSc3ccccc3)[nH]c(=O)c2c1C to O=Cc1c(SCCO)nc2ccccn2c1=O, the “hERG current change (%, negative = inhibition) at 1uM” value falls from 12.1% to 0.111%.

With COC(=O)NC1(C(F)(F)F)C(=O)NC(C)=C1C(=O)OC (stereo not drawn) the “hERG current change (%, negative = inhibition) at 1uM” value was 11.4%.
